Assay results reported in article PMC10668032.
Some of the results follow. At the low end of the ranking the order means little.

What follows are sequences tested against SIX1 homeodomain (reference allele) (UniProt Q15475) (assay: universal protein binding microarray). Conditions: Universal all-10-mer PBM (8x60K, AMADID 030236), 300 nM GST-tagged protein, Alexa Fluor 488 anti-GST; buffer, salt, pH and temperature not stated; high values mean tight binding; most listed sequences are background and not binding sites; double strand, one strand shown.

Row | Sequence | binding signal
1 | CTTTAATA | 0.121 E-score
2 | CTGGATCC | 0.351 E-score
3 | ACTATTAA | -0.000405 E-score
4 | AAGGTGGC | -0.000965 E-score
5 | GGCCCTCA | -0.19 E-score
6 | AACGAATA | -0.0519 E-score
7 | AAATAAAT | -0.114 E-score
8 | CATTGAAA | -0.17 E-score
9 | CATCAGCA | -0.0581 E-score
10 | CGCGCTGC | -0.015 E-score
11 | AATTGGTG | 0.071 E-score
12 | ACTCTGGA | 0.112 E-score
13 | TAGTTTCA | 0.0153 E-score
14 | ACGGGTCA | 0.0556 E-score
15 | CATGACCC | 0.105 E-score
16 | ATCCTGGC | 0.155 E-score
17 | GCAAGTGC | -0.292 E-score
18 | GGCATTAA | 0.0176 E-score
19 | AGGTGAGG | -0.145 E-score
20 | ACATGGAG | -0.00485 E-score
21 | CACGGACC | -0.0507 E-score
22 | GGAGTCGA | 0.0399 E-score
23 | GCTCTCAA | -0.104 E-score
24 | AAACGTCG | -0.189 E-score
25 | ATGGCTCG | 0.0426 E-score

Row | Sequence | binding signal
26 | CAAGTCTC | -0.113 E-score
27 | AACGTGAG | -0.0665 E-score
28 | ACAGAACA | 0.0893 E-score
29 | ACTTCGCC | -0.0688 E-score
30 | AAAACGCG | -0.331 E-score
31 | ACGTGTAA | 0.0889 E-score
32 | ATTCCTAA | 0.0604 E-score
33 | AGGCTAAG | -0.177 E-score
34 | AGCGGGCG | -0.163 E-score
35 | CCCGCGGG | 0.175 E-score
36 | TGCGTACA | -0.122 E-score
37 | CCCCATGA | -0.0463 E-score
38 | AGCGGCGA | -0.136 E-score
39 | CCAACCAA | -0.0738 E-score
40 | GGACCGCC | -0.224 E-score
41 | GGGTAGTA | 0.145 E-score
42 | GAGTGTGA | 0.0623 E-score
43 | ACGGTTCG | -0.234 E-score
44 | CCGAGACC | 0.0675 E-score
45 | ATAATTAG | 0.068 E-score
46 | GAGAAGTA | 0.109 E-score
47 | ATAGGGAC | 0.101 E-score
48 | CTGATGAC | -0.00919 E-score
49 | GAAACACC | 0.189 E-score
50 | CAACAAAG | -0.314 E-score

Row | Sequence | binding signal
51 | CGATTGAA | -0.158 E-score
52 | ATTCCTTC | -0.0876 E-score
53 | ATCATACG | 0.269 E-score
54 | CTACTGGC | -0.266 E-score
55 | GGTCTTCA | -0.0923 E-score
56 | ACACCTAA | 0.261 E-score
57 | AATCAGAT | 0.184 E-score
58 | CAATCAAG | -0.0447 E-score
59 | ATATTCAG | 0.164 E-score
60 | AAGAGGGT | -0.0551 E-score
61 | CATCCTGC | -0.0819 E-score
62 | TGAGATCA | 0.33 E-score
63 | ATGCACAA | -0.0205 E-score
64 | ACCGCTTA | -0.116 E-score
65 | TGTATAAA | 0.138 E-score
66 | AATCGCCA | -0.0805 E-score
67 | ATCACATG | 0.269 E-score
68 | CATTAAGC | -0.0884 E-score
69 | GGTGGGAA | -0.00853 E-score
70 | ACCACGCT | -0.0225 E-score
71 | CAAGTGCC | -0.388 E-score
72 | TAAGGTGA | 0.0628 E-score
73 | ACCCCGCT | 0.262 E-score
74 | CCGCCGAA | -0.0354 E-score
75 | CGTGTGCC | 0.0454 E-score

Row | Sequence | binding signal
76 | GCCCCCAA | -0.332 E-score
77 | AAACACAA | -0.303 E-score
78 | ATTTCCGC | -0.147 E-score
79 | CGGATCGC | 0.395 E-score
80 | AACCCATT | -0.128 E-score
81 | ACGTACGT | -0.121 E-score
82 | ATTACCTG | -0.187 E-score
83 | ACACGTCC | -0.046 E-score
84 | CCTTTTAC | -0.127 E-score
85 | AGATTAAA | -0.0404 E-score
86 | ATATACAA | 0.27 E-score
87 | CCAAGTAA | -0.161 E-score
88 | ATGAAGTG | -0.122 E-score
89 | ATGCGTGA | 0.161 E-score
90 | ACACTACT | 0.0748 E-score
91 | TACCGGGA | 0.157 E-score
92 | CACACTCC | -0.0875 E-score
93 | CTATGGCC | -0.305 E-score
94 | GATACGGC | 0.454 E-score
95 | ACACACTC | 0.0334 E-score
96 | ACGATCTC | 0.189 E-score
97 | AATATCAG | 0.225 E-score
98 | ACCAGGGT | 0.189 E-score
99 | GGTGGAGA | -0.117 E-score
100 | CCTCCTTC | -0.0167 E-score

Row | Sequence | binding signal
101 | ATCTAACC | 0.0231 E-score
102 | TGTCCAAA | -0.118 E-score
103 | TCAGTCCA | -0.111 E-score
104 | AAACCTGG | -0.0842 E-score
105 | GAAGGTAA | 0.0475 E-score
106 | CACCAAAC | -0.136 E-score
107 | AAGGTTCT | 0.0584 E-score
108 | CAACATCG | -0.0378 E-score
109 | AGCAGTAA | -0.0718 E-score
110 | CAATCCTG | 0.0183 E-score
111 | AGCCTCAG | -0.262 E-score
112 | CCTATCGA | 0.122 E-score
113 | GGGTACAC | 0.236 E-score
114 | CCGCCAGA | 0.00592 E-score
115 | GGGTGAGA | 0.172 E-score
116 | ATGTGGTC | -0.0279 E-score
117 | AGGATTAA | 0.243 E-score
118 | GCGCGACA | -0.242 E-score
119 | GCGATGAC | 0.0291 E-score
120 | CACGATGC | -0.031 E-score
121 | CACATCGG | 0.044 E-score
122 | ATGGATCG | 0.345 E-score
123 | GCAACCCA | -0.0632 E-score
124 | TGGGATAA | 0.176 E-score
125 | AGTACGCA | -0.267 E-score

Row | Sequence | binding signal
126 | CACCTATC | 0.266 E-score
127 | ACTTAGAA | -0.0764 E-score
128 | CACACGAC | -0.214 E-score
129 | CCCATCGG | 0.0666 E-score
130 | ACACTTAG | -0.0202 E-score
131 | CTCCATTC | -0.0869 E-score
132 | TAAGTCAA | -0.243 E-score
133 | GAGCGGTA | 0.0188 E-score
134 | AGGACATG | 0.142 E-score
135 | GACTTATA | -0.023 E-score
136 | CTCGTAGA | -0.0714 E-score
137 | AAATGTAC | -0.0169 E-score
138 | ACTCAGTC | -0.169 E-score
139 | ACTAGCGG | -0.111 E-score
140 | CTTGTCAA | -0.183 E-score
141 | CTAGGGAG | -0.145 E-score
142 | GAGGACTA | -0.13 E-score
143 | GACATGTA | 0.0659 E-score
144 | CCTCCAGA | 0.0547 E-score
145 | TAAATTTA | 0.0693 E-score
146 | ACGTGGTA | 0.0605 E-score
147 | AGGGACGC | -0.289 E-score
148 | AGACTGTG | -0.181 E-score
149 | CCCGGGCG | -0.0482 E-score
150 | TCACGGAA | -0.0712 E-score

Row | Sequence | binding signal
151 | ACATTCGT | -0.133 E-score
152 | ACGGTACA | -0.127 E-score
153 | AAGTAGGC | -0.101 E-score
154 | AGGAGCCC | -0.0374 E-score
155 | TCAGGAAA | -0.117 E-score
156 | AAATTCGC | -0.132 E-score
157 | AGATTGTC | -0.0318 E-score
158 | TCGAACGA | -0.00426 E-score
159 | CGATTGGA | 0.107 E-score
160 | AATTCGTA | -0.134 E-score
161 | ACAGCCAC | -0.00568 E-score
162 | GGGGGTAC | 0.245 E-score
163 | CTCTCGCA | -0.181 E-score
164 | CCTGATCG | 0.197 E-score
165 | TATAAATA | 0.16 E-score
166 | CTCGAAAG | -0.0397 E-score
167 | ATAACCCA | 0.0767 E-score
168 | ACATTCCG | -0.000615 E-score
169 | TCCTGTCA | -0.0539 E-score
170 | ACCGTCCT | 0.0188 E-score
171 | AATACGCG | 0.115 E-score
172 | AGTATTAT | 0.328 E-score
